Test results from PubChem BioAssay AID588453 (National Center for Advancing Translational Sciences (NCATS), 2011).
Out of some 390,000 compounds screened, about 4,000 (1%) were called active. The inconclusive results got no clear call from the source; some entries with a clear call stand among them for comparison. Calls come from the whole dose curve; as a rule, active = well fitted inhibition curve with a large enough effect; inconclusive = small, poorly fitted or top-dose-only effect; inactive = no such curve, though single readings can be large or run the other way. Potencies of inconclusive entries are doubtful fits and often do not repeat.

The compounds below were run against Thioredoxin reductase 1, cytoplasmic (Rattus norvegicus) (UniProt O89049) (assay: qHTS Assay for Inhibitors of Mammalian Selenoprotein Thioredoxin Reductase 1 (TrxR1): qHTS). Settings: recombinant rTrxR1, NADPH fluorescence consumption, selenite substrate; series mostly up to 114 µM; activity change, negative = inhibition: at the top concentration.
UniProt O89049, sequence (O89049 whole entry, looked up): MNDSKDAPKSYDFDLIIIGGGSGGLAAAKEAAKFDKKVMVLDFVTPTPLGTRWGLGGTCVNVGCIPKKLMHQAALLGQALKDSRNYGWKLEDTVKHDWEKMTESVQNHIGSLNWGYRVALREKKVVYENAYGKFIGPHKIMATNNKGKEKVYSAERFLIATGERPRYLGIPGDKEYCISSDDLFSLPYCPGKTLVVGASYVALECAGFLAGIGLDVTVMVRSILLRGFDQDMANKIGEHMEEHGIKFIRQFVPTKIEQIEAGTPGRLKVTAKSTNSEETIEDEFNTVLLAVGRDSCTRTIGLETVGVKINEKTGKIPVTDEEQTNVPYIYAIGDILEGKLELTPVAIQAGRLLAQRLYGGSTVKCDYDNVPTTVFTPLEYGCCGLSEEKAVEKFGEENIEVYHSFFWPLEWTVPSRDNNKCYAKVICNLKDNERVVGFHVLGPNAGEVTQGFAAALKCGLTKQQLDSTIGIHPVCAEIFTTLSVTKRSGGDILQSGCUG
Method in brief: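 Rat TrxR1 (90 nM in the dispensed reagent) was pre-reduced with 400 uM NADPH for 5 min at room temperature, then incubated with compound for 15 min. After 400 uM selenite was added, NADPH fluorescence (Ex 340/Em 450 nm) was followed for 8 min.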
% is set by controls: 0 for no effect and ±100 for the full control effect; potency is the fitted concentration of half-maximal effect; tags give direction and shape of the fitted curve.
Note: nearly all actives have a fitted effect of over 65% in size.

SMILES | Potency | activity change, negative = inhibition
COc1cc(/C=N/NC(=O)C2(O)c3ccccc3-c3ccccc32)ccc1O | inconclusive: 70.8 µM [inhibitor, partial curve, poor fit] | –
COc1ccc2c(c1OC)C(=O)OC2n1c(O)c(N=NC(C)=O)c2ccccc21 (centres undefined) | – | inactive: 3.8%
CCC(=O)N(CCC(c1ccc(C)cc1)c1ccco1)Cc1ccco1 (centres undefined) | active: 35.5 µM | –
COc1cccc(NC2=C(Cl)C(=O)OC2OC(=O)c2ccco2)c1 (centres undefined) | inconclusive: 17.8 µM [inhibitor, partial curve] | –
CC(=O)c1ccc(NC(=S)Nc2cccc3cnccc23)cc1 | active: 22.4 µM | –
Fc1cccc(-c2n[nH]c(=S)n2-c2ccccc2)c1 | – | inactive: -15.8%
COC(=O)C1[C@H]2C(=O)N(Cc3cccs3)C[C@]23C=C[C@H]1O3 (some centres undefined) | inconclusive: 0.891 µM [inhibitor, full curve, poor fit] | –
COc1ccc2c(c1)c(=O)oc1c(C)c(OC(C)C(=O)N[C@@H](Cc3c[nH]c4ccc(O)cc34)C(=O)O)ccc12 (some centres undefined) | inconclusive: 89.1 µM [inhibitor, single point] | –
CCc1ccc(-n2c(=O)c3c4c(sc3n(CC(=O)c3ccc(F)cc3)c2=O)CCC4)cc1 | – | inactive: 0.186%
Cc1ncc(CO)c2c1Oc1nc(-c3ccccc3F)nc(SCC(=O)N(C)c3ccccc3)c1C2 | inconclusive: 79.4 µM [inhibitor, partial curve] | –
Cc1ccc(NC(=S)N(CCC(C)C)C(C)c2ccncc2)c(Cl)c1 (centres undefined) | – | inactive: 1.87%
Oc1[nH]c2ccc(Br)cc2c1N=NC(=S)N1CCOCC1 | inconclusive: 6.31 µM [inhibitor, full curve] | –
CCC1([N+](=O)[O-])COC(c2ccc(Cl)cc2)OC1 (centres undefined) | inconclusive: 89.1 µM [inhibitor, single point] | –
Cc1c(O)c(=O)n(-c2ccccc2)n1C | inconclusive: 70.8 µM [inhibitor, partial curve] | –
COc1ccc(C2CC(c3cccc(Br)c3)=NN2c2ccc(S(N)(=O)=O)cc2)cc1 (centres undefined) | inconclusive: 100 µM [inhibitor, single point] | –
COc1ccccc1N1CCN(C2CCCN(C(=O)c3ccoc3C)C2)CC1 (centres undefined) | inconclusive: 70.8 µM [inhibitor, partial curve] | –
Nc1c(C(=O)NCc2ccco2)sc2nc3c(cc12)C(=O)CCC3 | inconclusive: 79.4 µM [inhibitor, single point] | –
O=C1CCCC2(O)C1C(c1cccc(Br)c1)NC(=O)N2Cc1ccccc1 (centres undefined) | active: 15.8 µM | –
CC1CCc2c(sc(Nc3nc4c(F)cccc4s3)c2C(N)=O)C1 (centres undefined) | inconclusive: 50.1 µM [inhibitor, partial curve, poor fit] | –
O=C(NC1CCCC1)c1cc(-c2ccc(Cl)cc2Cl)on1 | inconclusive: 50.1 µM [inhibitor, partial curve] | –
COc1ccc(-n2nc(C(=O)Nc3ccccn3)c3c4ccccc4n(C)c3c2=O)cc1 | – | inactive: 16.4%
Cc1nn(Cc2ccc(C(=O)N3CCOCC3)o2)c(C)c1Br | inconclusive: 50.1 µM [inhibitor, partial curve, poor fit] | –
COc1ccccc1-n1cc2c([N+](=O)[O-])cc([N+](=O)[O-])cc2n1 | inconclusive: 10 µM [inhibitor, partial curve] | –

SMILES | Potency | activity change, negative = inhibition
CS(=O)(=O)N1CCc2cc(C(=O)N3CCN(c4cccc(Cl)c4)CC3)ccc21 | inconclusive: 89.1 µM [inhibitor, single point] | –
O=C(COC(=O)c1cnccn1)Nc1ncc(Cl)cc1Cl | inconclusive: 70.8 µM [inhibitor, single point] | –
COc1ccc(NC(=O)Cn2c(=O)n(-c3cc(C)cc(C)c3)c(=O)c3oc4ccccc4c32)cc1OC | – | inactive: 11.7%
CC(C)CC(OC(=O)c1cccs1)C(=O)NCc1ccco1 (centres undefined) | inconclusive: 39.8 µM [inhibitor, partial curve, poor fit] | –
CC(c1ccccc1)N1CC(C(=O)N2CCN(c3ccccc3)CC2)CC1=O (centres undefined) | inconclusive: 89.1 µM [inhibitor, partial curve, poor fit] | –
CCN(CC)CCNc1nc2cc(OC)c(OC)cc2c2nc(-c3ccccc3)nn12 | – | inactive: 18.4%
Cc1nc(N2CCCC2)c2c(C(=O)N3CCN(c4ccccc4)CC3)c(C)oc2n1 | – | inactive: 11.6%
Cc1cc2c(n1-c1ccc(C(=O)NCCc3ccc(Cl)cc3)cc1)CCCC2 | – | inactive: -12.6%
O=C(O)c1ccccc1-c1ccc(/C=c2\sc3nc4cc(Br)cnc4n3c2=O)o1 | inconclusive: 31.6 µM [inhibitor, single point] | –
COc1ccc(C2C(C(=O)Nc3ccccc3)=C(C)Nc3c(C(=O)Nc4ccccc4)cnn32)cc1 (centres undefined) | – | inactive: 6.31%
Cc1ccc(C)c(N(C)C(=O)CCS(=O)(=O)c2cccc3nonc23)c1 | inconclusive: 70.8 µM [inhibitor, partial curve, poor fit] | –
Cc1ccccc1-c1nc(CS(=O)CC(=O)NC(C)CCc2ccccc2)c(C)o1 (centres undefined) | active: 2.24 µM | –
CC(=O)c1cc(C#N)c(N2CCOCC2)nc1C | – | inactive: 13%
COc1ccccc1-c1nn2c(-c3ccco3)nnc2s1 | inconclusive: 35.5 µM [inhibitor, full curve, poor fit] | –
C#CCOCCOCCOCCNc1nc(N2CCN(C(=O)CCCCCCCCCCNC(=O)Cn3cc(CCCCCN)nn3)CC2)nc(N2CCN(C(=O)CCCCCCCCCCNC(=O)[C@H]([C@@H](C)CC)n3cc(CCCCCN)nn3)CC2)n1 | inconclusive: 50.1 µM [inhibitor, partial curve, poor fit] | –
CCn1ccc(C(=O)NC2=C(C#N)CCC2)n1 | inconclusive: 25.1 µM [inhibitor, partial curve, poor fit] | –
CC(=O)c1sc(N2CCOCC2)nc1-c1ccccc1 | – | inactive: 7.25% [at 57.1 µM]
COc1cccc(OC)c1OCCCCCCN1CCN(C)CC1 | – | inactive: 16.2%
CCCOc1ccc(C(=O)NNC(=S)NC(=O)c2cc(-c3ccc(Cl)cc3)nc3ccccc23)cc1 | inconclusive: 31.6 µM [inhibitor, partial curve, poor fit] | –
CC(=O)Nc1ccc(NC(=O)c2nc(S(=O)(=O)Cc3ccc(F)cc3)ncc2Cl)cc1 | active: 1.26 µM | –
CC1CCCN(C(=O)CN2CCN(C(=O)c3ccco3)CC2)C1 (centres undefined) | inconclusive: 28.2 µM [inhibitor, single point] | –
Cc1ccc(C)c(NC(=O)CSc2nccn2-c2cccc(C)c2C)c1 | – | inactive: 6.88% [at 57.1 µM]
Cc1occc1C(=O)NCc1cccc(CNC(=O)c2ccoc2C)c1 | active: 8.91 µM | –

SMILES | Potency | activity change, negative = inhibition
CSc1nnc(-c2ccco2)c(-c2ccco2)n1 | active: 15.8 µM | –
CC(C)(C)OC(=O)N1CCC(c2c(C(=O)NCc3cccs3)cnn2-c2cccc(F)c2)CC1 | – | inactive: 28.6%
CCN(CC)C1=N/C(=C\c2ccco2)C(=O)N1c1ccccc1 | inconclusive: 56.2 µM [inhibitor, partial curve, poor fit] | –
CCCCOc1ccc(C(=O)Nn2c(-c3cccs3)nc3ccccc3c2=O)cc1 | inconclusive: 28.2 µM [inhibitor, single point] | –
COC(=O)c1cnn(-c2nc(OC)cc(OC)n2)c1C | – | inactive: 0.122%
O=C(NNC(=O)c1cc2cc(Br)ccc2oc1=O)c1ccc(O)cc1 | inconclusive: 70.8 µM [inhibitor, partial curve, poor fit] | –
O=C1CCCC2=C1C(c1cn(-c3ccccc3)nc1-c1cccs1)c1c([nH]c(=O)[nH]c1=O)N2 (centres undefined) | inconclusive: 20 µM [inhibitor, full curve] | –
N#CCc1c(C#N)c(N)nc(N2CCOCC2)c1C#N | inconclusive: 0.891 µM [inhibitor, full curve, poor fit] | –
COC(=O)c1cn[nH]c1NC(=S)Nc1ccc(Cl)c(Cl)c1 | inconclusive: 1.26 µM [inhibitor, full curve, poor fit] | –
CC(=O)c1c(C)[nH]c(C(=O)OCc2ccccc2)c1C | – | inactive: 5.37% [at 57.1 µM]
O=C(c1cnn(C(=O)c2ccco2)c1)c1cc(Cl)cc(Cl)c1O | inconclusive: 31.6 µM [inhibitor, partial curve] | –
O=C1CC(c2ccccc2)c2cc(O)ccc2O1 (centres undefined) | – | inactive: 5.07%
COc1ccc(-n2nnnc2C2CCN(S(=O)(=O)c3cccc(C(F)(F)F)c3)CC2)cc1 | – | inactive: 24.2%
COc1cccc(NC(=O)C(Cc2ccccc2)N2Cc3ccccc3C2=O)c1 (centres undefined) | – | inactive: 12.5%
Cc1cccc(-n2c(Cn3nc(C)c([N+](=O)[O-])c3C)n[nH]c2=S)c1 | inconclusive: 8.91 µM [inhibitor, full curve] | –
CCn1cc(C2=NC(C(C)C)CO2)c2ccccc21 (centres undefined) | – | inactive: 6.56% [at 57.1 µM]
COc1ccc(NS(=O)(=O)c2ccc(N3CCCCS3(=O)=O)cc2)cc1Cl | – | inactive: 18.2% [at 57.1 µM]
Cc1cc(C)c2ccc(C)[n+]([O-])c2c1O | inconclusive: 15.8 µM [inhibitor, partial curve] | –
CC(C1CC1)N(Cc1ccccc1)C(=S)Nc1cccc(C(F)(F)F)c1 (centres undefined) | – | inactive: -2% [at 57.1 µM]
COc1cccc(/C=C/C(=O)c2c(O)cc(C)oc2=O)c1O | inconclusive: 15.8 µM [inhibitor, partial curve, poor fit] | –
CCOC(=O)c1c(C#N)c(SCC(=O)Nc2ccc(OC)cc2)nc2c1CN(CC)CC2 | inconclusive: 56.2 µM [inhibitor, partial curve, poor fit] | –
CCOc1cc(C2Nc3ccccc3C(=O)N2c2ccccc2)c(Br)cc1OCC(=O)O (centres undefined) | inconclusive: 79.4 µM [inhibitor, single point] | –
CCOC(=O)C(NC(=O)Nc1ccc(Cl)cn1)(Oc1ccccc1)C(F)(F)F (centres undefined) | inconclusive: 39.8 µM [inhibitor, single point] | –
